Several values for one entry are separate records, joined by “and”; a condition that tells them apart may be missing. Equal entries are not always repeated. About 1,200 (2.5%) of roughly 48,000 compounds were called active. Roughly 2% stayed inconclusive and do not appear here.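 The calls were made as follows: active = activation of at least 60% and not above a set upper limit (about 1 call in 100 departs from these limits); inconclusive = activation of 40% to 60%, or above that upper limit; inactive = activation under 40%.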 Some of the results follow.

Sequence of UniProt O75388 (O75388 whole entry, looked up): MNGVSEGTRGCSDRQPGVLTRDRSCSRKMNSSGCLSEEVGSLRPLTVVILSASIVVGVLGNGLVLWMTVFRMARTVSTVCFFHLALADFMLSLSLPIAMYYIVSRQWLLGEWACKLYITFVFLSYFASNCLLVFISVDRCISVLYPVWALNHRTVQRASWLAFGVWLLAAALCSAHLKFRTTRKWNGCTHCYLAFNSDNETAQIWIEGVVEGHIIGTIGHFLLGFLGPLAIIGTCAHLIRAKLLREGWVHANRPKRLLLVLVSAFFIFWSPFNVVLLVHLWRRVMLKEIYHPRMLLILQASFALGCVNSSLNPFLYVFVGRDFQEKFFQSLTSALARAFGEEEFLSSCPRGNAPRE

For this assay, the target named is Probable G-protein coupled receptor 32 (Homo sapiens) (UniProt O75388). The assay can be described thus: qHTS for Agonists of Human Resolvin D1 Receptor DRV1. Also: 0% is about no effect. The conditions noted are these: CHO-K1 GPR32 beta-arrestin PathHunter luminescence, 90 min; at 76.9 µM; hits give high values; zero percent set by DMSO-only wells. An outline of the steps:
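Engineered CHO-K1 line co-expressing GPR32-ProLink and EA-beta-arrestin. Compound treatment lasted 90 min at 37 °C. Luminescence was recorded after 1 h with substrate at ambient temperature, relative to DMSO basal wells.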
As for `O=C(COc1ccc([N+](=O)[O-])cc1)Nc1nc2c(s1)CCCC2`, the activation is inactive: -5.22%.

With `COc1ccc(C(=O)NCC(c2ccc3c(c2)OCO3)N2CCN(c3ccccc3F)CC2)cc1` (centres undefined), the activation was inactive: -28.9%.

Take `O=C1CCc2cc(OCCCCc3nnnn3C3CCCCC3)ccc2N1`: the activation is inactive: 29.8% and inactive: 12.1%. Regarding `Cc1ccccc1-c1nnn(CC(=O)Nc2sc3c(c2C#N)CCC(C(C)(C)C)C3)n1` (centres undefined), the activation is inactive: 25.7%.

Take `CCc1ccc(NC(=O)Cn2c(=O)n(CCCCC(=O)NCCc3ccc(Cl)cc3)c(=O)c3ccccc32)cc1`: the activation was inactive: -3.92%. The value for `COc1cc(OC)cc(-c2nc(-c3ccc4c(c3)[nH]c(=O)n4C)no2)c1` was inactive: -9.44%; that for `O=C1CCCc2cc(S(=O)(=O)N3CCCC(C(=O)NCc4ccc(Cl)cc4)C3)ccc2N1` (centres undefined) was inactive: 45.7%. `O=c1[nH]c2ccc(NCc3ccc(-c4ccc(Br)cc4)o3)cc2[nH]1`: the activation is inactive: -24.1%. Regarding `CCOC(=O)c1c(NC(=O)c2nc(S(C)(=O)=O)ncc2Cl)sc(C(C)=O)c1C`, the activation was inactive: 5.83%. Take `Cc1ccc2ncc(C(=O)Nc3ccc(OC(F)(F)F)cc3)c(=O)n2c1`: the activation is inactive: 9.23%. As for `O=C(CSc1nnc(-c2ccc(F)cc2)o1)N1CCCc2ccccc21`, the activation is inactive: -9.88%. Regarding `Cc1ccc(CSc2nnc3[nH]c(=O)cc(-c4ccccc4)n23)cc1`, the activation is inactive: 3.44%. For the compound `O=C(O)c1ccccc1-c1ccc(C(F)(F)F)cc1`, the activation is inactive: 17%. With `COc1cc(OC)c(NS(=O)(=O)c2ccc3oc(=O)c4ncn(C)c4c3c2)cc1Cl`, the activation is inactive: -13.1%. The value for `COc1ccc(-n2c(SCC(=O)NCc3ccc(C)cc3)nc3n[nH]c(C)c3c2=N)cc1` was inactive: -17%; that for `Fc1ccc(-c2nc(Nc3cccc(C(F)(F)F)c3)nc3c2COc2ccccc2-3)cc1` was inactive: -2.25%; that for `COC(=O)c1sccc1S(=O)(=O)N(CC(=O)NCc1ccc(C)cc1)c1ccc(C)cc1` was inactive: -5.04%. `COc1ccc(N2CCN(CCCNC(=O)Nc3ccccc3)CC2)cc1`: the activation was inactive: 38.8%. In the case of `COc1ccc(C2C=C(c3ccc(Cl)c(Cl)c3)Nc3ncnn32)cc1` (centres undefined), the activation is inactive: 2.74%. Turning to `O=C(CCC1N=C2c3ccccc3N=C(SCc3ccc(Cl)cc3)N2C1=O)N1CCN(c2ccccc2)CC1` (centres undefined), the activation was inactive: -8.59%.

Consider `CC(C)(C)c1ccc(OCc2nnc(-c3ccccc3)o2)cc1`, for which the activation is inactive: 2.6%. The result for `CCn1cc(C(=O)NCc2ccc(Cl)cc2)c(=O)c2cc(S(=O)(=O)N(C)C3CCCCC3)ccc21` reads inactive: 8.44%; that for `CCOC(=O)C1=C(CN2CCN(c3cccc(Cl)c3)CC2)NC(=O)NC1c1ccc(Cl)cc1` (centres undefined), inactive: -8.42%; that for `COc1ccc(S(=O)(=O)NCCSc2nnnn2-c2ccccc2)cc1`, inactive: 29.9%. In the case of `COc1ccc(NC(=O)CCCn2nc(C)c3sc4ccccc4c3c2=O)cc1`, the activation is inactive: -6.75%. The result for `CC(CNC(=O)c1ccc2nc(Cc3ccccc3)oc2c1)c1ccccc1` (centres undefined) reads inactive: -16.8%; that for `Cc1cc(-n2c(C)nc3ccccc3c2=O)ccc1NC(=O)C(F)(F)F`, inactive: 49.5%. As for `Fc1ccc(C2=CC(c3ccc(F)cc3)n3c(nc4ccccc43)N2)cc1` (centres undefined), the activation was inactive: -43.2%. In the case of `O=C(Cn1ncc2c3ccccc3n(Cc3ccc(F)cc3)c2c1=O)NCc1cccs1`, the activation is inactive: -2.11%. For the compound `COc1ccc(-c2nc(CSCC(=O)N3CCN(c4ccc(F)cc4)CC3)c(C)o2)cc1`, the activation is inactive: -7.04%. The result for `CC1CCCN(S(=O)(=O)c2ccc3c(c2)CCN3C(=O)CCC(=O)O)C1` (centres undefined) reads inactive: 6.02%; that for `CCC(C)Nc1ncnc2c1cnn2-c1ccc(F)cc1` (centres undefined), active: 65.1%; that for `Cc1cccc(Cc2c(C)nc3c(-c4ccccc4)c(C)[nH]n3c2=O)c1`, inactive: -61.9%. The result for `COc1ccc(NS(=O)(=O)c2ccc3nc(-c4ccccc4)[nH]c3c2)cc1` reads active: 116%.

For the compound `Cc1cc(C(=O)Nc2ccc(-n3c(C)nc4ccccc4c3=O)cc2)ccc1[N+](=O)[O-]`, the activation is inactive: 21.6%. With `CCN(Cc1ccccc1)C(=O)c1cnn(-c2ccc(F)cc2)c1-n1cccc1`, the activation was inactive: 40.7%. As for `CCC(Sc1nnc(C)n2c1cc1occc12)C(=O)Nc1ccccc1OC` (centres undefined), the activation was inactive: -4.66%. The value for `Cc1ccc(NC(=O)c2cnn3c2NC(c2ccccc2)=CC3c2ccccc2)cc1` (centres undefined) was inactive: -10.3%; that for `CCCn1c2ccccc2c2nnc(SCC(=O)Nc3cccc(C(C)=O)c3)nc21` was inactive: -4.67%. For `CC(=O)c1sc(N2C(=O)c3oc4ccccc4c(=O)c3C2c2ccc(C)cc2)nc1C` (centres undefined), the activation is inactive: 19.8%. As to `CC(=O)c1ccc(NC(=O)Cn2nc(N3CCN(c4ccccc4)CC3)ccc2=O)cc1`, the activation is inactive: -19.7%. Take `COc1ccccc1OC(C)C(=O)Nc1cccc(-c2nc3ccccc3o2)c1` (centres undefined): the activation is inactive: 1.28%. For the compound `CCc1ccc(NS(=O)(=O)c2ccc3[nH]cc(C(=O)NCCCOC(C)C)c(=O)c3c2)cc1`, the activation was inactive: -5.26%. Regarding `COc1ccccc1CNC(=O)CSC1=Nc2ccccc2N=C(c2ccc(F)cc2)C1`, the activation is inactive: -16.8%.

`Cc1ccc(Cl)cc1N1CCN(S(=O)(=O)c2ccc3c(c2)CCN3C(=O)C2CCC2)CC1`: the activation was inactive: -5.22%. For `O=C(NCc1cccnc1)c1nn(-c2ccc(F)cc2)nc1CO`, the activation is inactive: -5.96%. For the compound `CCCSc1nc2c([nH]c3ccccc32)c(=O)n1C`, the activation is inactive: -3.94%. In the case of `CC(C)c1nc2ccc(C(=O)Nc3ccccc3F)cc2o1`, the activation is inactive: -11.4%.

With `O=C(Nc1ccccc1Cl)c1sc2cccc(Cl)c2c1Cl`, the activation is inactive: 9.53%. In the case of `COc1ccc(NC(=O)c2oc3ccccc3c2NC(=O)COc2ccc(C(C)C)cc2)c(OC)c1`, the activation was inactive: 18%.

As for `CCSc1nc2n(n1)C(c1ccc(C(=O)O)cc1)C(C(=O)Nc1ccccc1C)=C(C)N2` (centres undefined), the activation is inactive: 45.2%. As to `CN1C(C(=O)Nc2ccc(OC(F)(F)F)cc2)=CC(c2cccs2)=NS1(=O)=O`, the activation was inactive: -5.47%. As for `COc1cccc(NC(=O)Cn2c(=O)n(Cc3ccccc3)c(=O)c3ccccc32)c1`, the activation was inactive: -0.216%. As to `CCOc1cc(CNC(=O)CN2CCSc3ccccc32)cc(OCC)c1OCC`, the activation is inactive: 42.8%. As to `Cc1ccc(N(CC(=O)Nc2ccc(Cl)cc2)S(=O)(=O)c2cccc3nonc23)cc1`, the activation is inactive: -27.3%. With `Cc1ccc(NC(=O)Cc2coc3ccc(C(C)C)cc23)cc1Cl`, the activation is inactive: 17.5%. As to `CN(C)c1ccc(CNC(=O)Cn2c(=O)oc3cc(S(=O)(=O)N4CCCCCC4)ccc32)cc1`, the activation is active: 113%. The value for `COc1ccc(-c2nc3c(c(SCC(=O)N4CCCCC4)n2)Cc2cc(Cl)ccc2O3)cc1` was inactive: -9.83%.

On to `CCOC(=O)c1c(NC(=O)c2ccc(OC)cc2)sc2c1CCCCC2`, for which the activation is inactive: 6.41%.

With `O=C(COc1ccccc1)Nc1ccc2nc(SCC(=O)N3CCOCC3)sc2c1`, the activation is inactive: 16.1%. `Cc1ccc(-n2ncc(C(=O)N3CCCCC3)c2C2CCN(C(=O)OC(C)(C)C)CC2)c(C)c1`: the activation was inactive: 1.71%.

With `CCCS(=O)(=O)c1nc(S(=O)(=O)c2ccc(C)cc2)c(NC)s1`, the activation was inactive: -10.3%. For `COc1ccc(-n2c(=O)[nH]c3cc(C(=O)NCCc4ccccc4)ccc3c2=O)cc1OC`, the activation is inactive: 16.3%. `O=C(CCC(=O)c1ccc(F)cc1)Nc1ccc(Cl)cc1`: the activation was inactive: 3.03%. With `CCOc1ccc(CNC(=O)C2CCCCN2S(=O)(=O)c2ccc(F)cc2)cc1OC` (centres undefined), the activation is inactive: 13.7%.

With `CCn1cc(S(=O)(=O)c2cccc(C)c2)c(=O)c2cc(F)c(N3CCCC(C)C3)cc21` (centres undefined), the activation was inactive: 0.0169%. Turning to `O=C(c1ccc2c(c1)N(Cc1ccccc1F)C(=O)c1ccccc1S2(=O)=O)N1CCN(c2ccccn2)CC1`, the activation is inactive: -19.1%. The result for `COc1ccc(-c2nc3c(c(SC)n2)Cc2c(CO)cnc(C)c2O3)cc1` reads inactive: -4.71%. With `CCn1c(=O)c2cc(C(=O)NCCCN3CCN(C)CC3)sc2c2ccccc21`, the activation is inactive: 7.61%. Turning to `Cc1ccccc1NC(=O)c1c(C)oc2ccc(O)c(CN3CCOCC3)c12`, the activation was inactive: 22.8%. With `O=C(CSc1n[nH]c(-c2ccccc2Cl)n1)NCc1ccc(F)cc1`, the activation is inactive: -15.9%. Take `COc1ccc(S(=O)(=O)NCc2nc3nc(C)cc(C)n3n2)cc1`: the activation is inactive: -7.42%. On to `Cc1ccc(Nc2c(-c3ccc(Br)o3)nc3ccccn23)cc1`, for which the activation is inactive: -10.9%. Take `NC(=O)c1c(NC(=O)CS(=O)(=O)c2ccc(Cl)cc2)sc2c1CCCCC2`: the activation was inactive: 4.44%. The value for `O=C(NCCCN1CCN(c2cccc(Cl)c2)CC1)c1sc2ncccc2c1-n1cccc1` was inactive: -3.71%. For the compound `Cc1ccc(-c2nc(CS(=O)(=O)CC(=O)Nc3ccc(Br)cc3F)c(C)o2)cc1`, the activation is inactive: -11.6%.

`CCC(=O)Oc1c(Sc2ccc(Cl)cc2)c(C)nn1-c1ccccc1`: the activation was inactive: -2.97%. The value for `Cc1ccc(Cl)cc1N1CCN(C(=O)Cn2ncc3c4ccccc4n(C)c3c2=O)CC1` was inactive: 22.6%; that for `CCOc1ccc(NC(=O)CSC2=Nc3ccccc3C3=NC(CCC(=O)NCc4ccco4)C(=O)N23)cc1` (centres undefined) was inactive: -2.77%. The result for `Cc1ccc(-c2csc(-c3cc4c([nH]c3=O)CC(c3ccccc3)CC4=O)n2)cc1` (centres undefined) reads inactive: -22.2%; that for `CC1CCCN(c2nc3c(-c4ccc(Cl)cc4)nnn3c3ccccc23)C1` (centres undefined), inactive: -12.9%; that for `Cc1cc(Cl)ccc1NS(=O)(=O)c1c(C(=O)N2CCC(C)CC2)c(C)n(C)c1C`, inactive: -26.4%. With `Cc1cc2c(cc1S(=O)(=O)Nc1ccc(OC(F)(F)F)cc1)OCC(=O)N2`, the activation was inactive: -3.96%.

On to `CCN(CC)S(=O)(=O)c1ccc2c(c1)N(CC(=O)NCc1ccccc1)C(=O)C1CCCCN21` (centres undefined), for which the activation was inactive: -17.7%.

For the origin of these results see PubChem BioAssay AID1346428 (National Center for Advancing Translational Sciences (NCATS), 2018).
